# The other results are listed elsewhere or left out.
# Assays:
# Assay in all cases: glycan array binding signal (z-score within array); higher = stronger binding
# Conditions in all cases: glycan notation: IUPAC condensed, linker removed
# [1] = biological target: Gal(b1-3)[Fuc(a1-4)]GlcNAc
# In short: (§1)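 Columns mapping to the same glycan were averaged after glycan names were converted to IUPAC-condensed notation. The data come from 3228 arrays in the Consortium for Functional Glycomics database, limited to those with an available protein sequence. Binding is reported as a within-array Z-score averaged across arrays of one protein sequence and across linkers.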
# [2] = biological target: Gal(b1-3)[Fuc(a1-4)]GlcNAc(b1-2)Man(a1-3)[Gal(b1-3)[Fuc(a1-4)]GlcNAc(b1-2)Man(a1-6)]Man(b1-4)GlcNAc(b1-4)GlcNAc
# In short: as §1
# [3] = biological target: Gal(b1-3)[Fuc(a1-4)]GlcNAc(b1-2)Man(a1-3)[Gal(b1-3)[Fuc(a1-4)]GlcNAc(b1-2)Man(a1-6)]Man(b1-4)GlcNAc(b1-4)[Fuc(a1-6)]GlcNAc
# In short: as §1
# [4] = biological target: Gal(b1-3)[Fuc(a1-4)]GlcNAc(b1-3)Gal(b1-3)[Fuc(a1-4)]GlcNAc
# In short: as §1
# [5] = biological target: Gal(b1-3)[Fuc(a1-4)]GlcNAc(b1-3)Gal(b1-4)GlcNAc
# In short: as §1
# [6] = biological target: Gal(b1-3)[Fuc(a1-4)]GlcNAc(b1-3)Gal(b1-4)[Fuc(a1-3)]GlcNAc
# In short: as §1
# [7] = biological target: Gal(b1-3)[GlcNAc(b1-6)]GalNAc
# In short: as §1
# [8] = biological target: Gal(b1-3)[Neu5Ac(a2-6)]GalNAc
# In short: as §1
# [9] = biological target: Gal(b1-3)[Neu5Ac(a2-6)]GlcNAc(b1-6)Gal(b1-4)Glc
# In short: as §1
# [10] = biological target: Gal(b1-3)[Neu5Ac(b2-6)]GalNAc
# In short: as §1
# [11] = biological target: Gal(b1-4)GalNAc(a1-3)[Fuc(a1-2)]Gal(b1-4)GlcNAc
# In short: as §1
# [12] = biological target: Gal(b1-4)GalNAc(b1-3)[Fuc(a1-2)]Gal(b1-4)GlcNAc
# In short: as §1
# [13] = biological target: Gal(b1-4)Glc
# In short: as §1
# [14] = biological target: Gal(b1-4)Glc6S
# In short: as §1
# [15] = biological target: Gal(b1-4)GlcNAc
# In short: as §1
# [16] = biological target: Gal(b1-4)GlcNAc(a1-6)Gal(b1-4)GlcNAc
# In short: as §1
# [17] = biological target: Gal(b1-4)GlcNAc(b1-2)Man(a1-3)Man(b1-4)GlcNAc(b1-4)GlcNAc
# In short: as §1
# [18] = biological target: Gal(b1-4)GlcNAc(b1-2)Man(a1-3)[Gal(b1-4)GlcNAc(b1-2)Man(a1-6)]Man(b1-4)GlcNAc(b1-4)GlcNAc
# In short: as §1
# [19] = biological target: Gal(b1-4)GlcNAc(b1-2)Man(a1-3)[Gal(b1-4)GlcNAc(b1-2)Man(a1-6)]Man(b1-4)GlcNAc(b1-4)[Fuc(a1-6)]GlcNAc
# In short: as §1
# [20] = biological target: Gal(b1-4)GlcNAc(b1-2)Man(a1-3)[GlcNAc(b1-2)Man(a1-6)]Man(b1-4)GlcNAc(b1-4)GlcNAc
# In short: as §1
# [21] = biological target: Gal(b1-4)GlcNAc(b1-2)Man(a1-3)[Man(a1-6)]Man(b1-4)GlcNAc(b1-4)GlcNAc
# In short: as §1
# [22] = biological target: Gal(b1-4)GlcNAc(b1-2)Man(a1-6)Man(b1-4)GlcNAc(b1-4)GlcNAc
# In short: as §1
# [23] = biological target: Gal(b1-4)GlcNAc(b1-2)Man(a1-6)[GlcNAc(b1-2)Man(a1-3)]Man(b1-4)GlcNAc(b1-4)GlcNAc
# In short: as §1
# [24] = biological target: Gal(b1-4)GlcNAc(b1-2)Man(a1-6)[Man(a1-3)]Man(b1-4)GlcNAc(b1-4)GlcNAc
# In short: as §1
# [25] = biological target: Gal(b1-4)GlcNAc(b1-2)[Gal(b1-4)GlcNAc(b1-4)]Man(a1-3)[Gal(b1-4)GlcNAc(b1-2)Man(a1-6)]Man(b1-4)GlcNAc(b1-4)GlcNAc
# In short: as §1
# [26] = biological target: Gal(b1-4)GlcNAc(b1-2)[Gal(b1-4)GlcNAc(b1-4)]Man(a1-3)[Gal(b1-4)GlcNAc(b1-2)[Gal(b1-4)GlcNAc(b1-6)]Man(a1-6)]Man(b1-4)GlcNAc(b1-4)GlcNAc
# In short: as §1
# [27] = biological target: Gal(b1-4)GlcNAc(b1-3)Gal(b1-3)GlcNAc
# In short: as §1
# [28] = biological target: Gal(b1-4)GlcNAc(b1-3)Gal(b1-4)Glc
# In short: as §1
# [29] = biological target: Gal(b1-4)GlcNAc(b1-3)Gal(b1-4)GlcNAc
# In short: as §1
# [30] = biological target: Gal(b1-4)GlcNAc(b1-3)Gal(b1-4)GlcNAc(b1-3)Gal(b1-4)GlcNAc
# In short: as §1
# [31] = biological target: Gal(b1-4)GlcNAc(b1-3)Gal(b1-4)[Fuc(a1-3)]GlcNAc(b1-3)Gal(b1-4)[Fuc(a1-3)]GlcNAc
# In short: as §1
# [32] = biological target: Gal(b1-4)GlcNAc(b1-3)GalNAc
# In short: as §1
# [33] = biological target: Gal(b1-4)GlcNAc(b1-3)[Gal(b1-4)GlcNAc(b1-6)]Gal(b1-4)GlcNAc
# In short: as §1
# [34] = biological target: Gal(b1-4)GlcNAc(b1-3)[Gal(b1-4)GlcNAc(b1-6)]GalNAc
# In short: as §1
# [35] = biological target: Gal(b1-4)GlcNAc(b1-3)[GlcNAc(b1-6)]Gal(b1-4)GlcNAc
# In short: as §1
# [36] = biological target: Gal(b1-4)GlcNAc(b1-6)Gal(b1-4)GlcNAc
# In short: as §1
# [37] = biological target: Gal(b1-4)GlcNAc(b1-6)GalNAc
# In short: as §1
binder,measurement,setting,value
"Gal 3 (Homo sapiens), P17931 (protein) MADNFSLHDALSGSGNPNPQGWPGAWGNQPAGAGGYPGASYPGAYPGQAPPGAYPGQAPPGAYHGAPGAYPGAPAPGVYPGPPSGPGAYPSSGQPSAPGAYPATGPYGAPAGPLIVPYNLPLPGGVVPRMLITILGTVKPNANILDFQRGNDVAFHFNPRFNENNRRVIVCNTKLDNNWGREERQSVFPFESGKPFKIQVLVEPDHFKVAVNDAHLLQYNHRVKKLNEISKLGISGDIDLTSASYTMI",glycan array binding signal (z-score),[1],-0.391
same,glycan array binding signal (z-score),[2],-0.384
same,glycan array binding signal (z-score),[3],-0.386
same,glycan array binding signal (z-score),[4],-0.387
same,glycan array binding signal (z-score),[5],-0.386
same,glycan array binding signal (z-score),[6],-0.388
same,glycan array binding signal (z-score),[7],-0.389
same,glycan array binding signal (z-score),[8],-0.375
same,glycan array binding signal (z-score),[9],-0.389
same,glycan array binding signal (z-score),[10],-0.386
same,glycan array binding signal (z-score),[11],2.98
same,glycan array binding signal (z-score),[12],-0.389
same,glycan array binding signal (z-score),[13],-0.393
same,glycan array binding signal (z-score),[14],-0.39
same,glycan array binding signal (z-score),[15],-0.392
same,glycan array binding signal (z-score),[16],-0.37
same,glycan array binding signal (z-score),[17],-0.377
same,glycan array binding signal (z-score),[18],0.966
same,glycan array binding signal (z-score),[19],-0.235
same,glycan array binding signal (z-score),[20],-0.094
same,glycan array binding signal (z-score),[21],-0.347
same,glycan array binding signal (z-score),[22],-0.379
same,glycan array binding signal (z-score),[23],-0.374
same,glycan array binding signal (z-score),[24],-0.386
same,glycan array binding signal (z-score),[25],0.908
same,glycan array binding signal (z-score),[26],2.3
same,glycan array binding signal (z-score),[27],2.35
same,glycan array binding signal (z-score),[28],2.27
same,glycan array binding signal (z-score),[29],3.4
same,glycan array binding signal (z-score),[30],4.37
same,glycan array binding signal (z-score),[31],-0.258
same,glycan array binding signal (z-score),[32],-0.387
same,glycan array binding signal (z-score),[33],1.06
same,glycan array binding signal (z-score),[34],-0.032
same,glycan array binding signal (z-score),[35],-0.307
same,glycan array binding signal (z-score),[36],-0.389
same,glycan array binding signal (z-score),[37],-0.391

# Source: the supplement of paper PMC8728848
